Measurements: PMC4336329 (PLoS ONE, 2015)
The whole screen tested about 310,000 compounds, of which about 2,200 (0.71%) showed an effect of 50% or more. The effect is printed as a negative number. Some of the results follow.

target: human ether-à-go-go-related gene (hERG) potassium channel (human, UniProt Q12809); test: primary screen, population patch clamp on CHO cells stably expressing hERG
Sequence (Q12809 whole entry, looked up): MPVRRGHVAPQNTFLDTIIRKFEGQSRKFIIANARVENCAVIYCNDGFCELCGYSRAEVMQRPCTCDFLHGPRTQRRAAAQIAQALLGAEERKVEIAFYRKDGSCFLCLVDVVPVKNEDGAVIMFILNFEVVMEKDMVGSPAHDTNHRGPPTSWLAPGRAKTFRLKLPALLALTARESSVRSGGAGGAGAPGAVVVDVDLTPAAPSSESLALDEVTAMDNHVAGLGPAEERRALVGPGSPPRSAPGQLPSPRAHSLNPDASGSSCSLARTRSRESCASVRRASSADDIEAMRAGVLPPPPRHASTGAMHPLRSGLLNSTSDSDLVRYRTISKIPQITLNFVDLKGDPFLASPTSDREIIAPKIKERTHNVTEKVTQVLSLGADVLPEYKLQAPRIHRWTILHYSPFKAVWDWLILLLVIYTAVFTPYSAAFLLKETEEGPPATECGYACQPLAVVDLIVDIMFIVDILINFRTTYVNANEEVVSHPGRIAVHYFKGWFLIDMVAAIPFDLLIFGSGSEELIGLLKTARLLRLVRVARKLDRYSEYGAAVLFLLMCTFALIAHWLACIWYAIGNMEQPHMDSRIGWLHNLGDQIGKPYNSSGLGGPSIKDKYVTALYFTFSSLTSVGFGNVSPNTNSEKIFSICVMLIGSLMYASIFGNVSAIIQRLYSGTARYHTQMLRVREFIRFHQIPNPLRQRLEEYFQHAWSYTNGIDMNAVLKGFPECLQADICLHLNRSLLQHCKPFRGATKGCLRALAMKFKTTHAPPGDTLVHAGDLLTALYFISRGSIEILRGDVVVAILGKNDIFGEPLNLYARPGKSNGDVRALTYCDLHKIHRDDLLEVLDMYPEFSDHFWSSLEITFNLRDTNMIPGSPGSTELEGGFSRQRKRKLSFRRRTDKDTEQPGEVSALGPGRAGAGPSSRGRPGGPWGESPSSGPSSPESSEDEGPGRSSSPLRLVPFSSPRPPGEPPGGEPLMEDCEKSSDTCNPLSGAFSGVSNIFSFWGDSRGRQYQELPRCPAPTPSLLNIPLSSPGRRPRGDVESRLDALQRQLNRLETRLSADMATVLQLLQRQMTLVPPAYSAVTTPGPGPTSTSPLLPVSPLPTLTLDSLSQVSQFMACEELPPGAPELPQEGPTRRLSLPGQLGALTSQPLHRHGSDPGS

SMILES	hERG current change (%, negative = inhibition) at 1uM [%]
O=C(O)C1CC(=O)N(c2ccc(OCc3c(F)cccc3Cl)cc2)C1 (stereo not shown)	12.5
CC(C)N(Cc1nc(-c2ccccc2)no1)S(=O)(=O)c1ccccc1	5.31
O=C(CNc1ccc(F)cc1)N/N=C1\CCc2ccccc21	3.41
Cc1cc(C)c(NS(=O)(=O)c2ccc(NC(=O)/C=C/C(=O)O)cc2)c(C)c1	9.67
CCc1ccc(-c2nc(-c3ccncc3)no2)cc1	5.1
Cc1cc2c(cc1C)[n+](C)cn2CC(O)COCC1CC=CCC1.[I-] (stereo not shown)	11
CC(C)C(=O)NC(NC1CCS(=O)(=O)C1)C(Cl)(Cl)Cl (stereo not shown)	5.34
O=C1c2ccccc2C(=O)N1CC1=NCCc2ccccc21	13
O=C(CCS(=O)(=O)c1cccc2nsnc12)N1CCN(c2ccccc2F)CC1	10.8
O=C(NNC(=S)NCc1ccccc1)c1cccnc1	8.83
COc1ccccc1C(=O)Nc1nnc(SCC(=O)Nc2ccc3c(c2)oc2ccccc23)s1	11.9
COc1ccc(/C=N\NC(=O)c2nn(C)cc2Cl)cc1CN1CCOCC1	2.02
O=C(NCc1ccccn1)C1CN(S(=O)(=O)c2ccccc2)CCN1S(=O)(=O)c1ccccc1 (stereo not shown)	11.9
CCn1c(CC(=O)Nc2cccc(Cl)c2Cl)nnc1SCCOc1ccc(OC)cc1	12.9
C#CCOC(=O)c1ccccc1C(=O)n1nnc2ccccc21	3.9
CCC(C(=O)NCc1ccco1)N(C(=O)CNS(=O)(=O)c1ccccc1)C1CCCCC1 (stereo not shown)	-5.76
COc1ccc(NC(=O)CN2C(=O)C(c3ccccc3)=NC23CCCCCC3)cc1	8.77
CCOc1ccc(NC(=O)Nc2ccon2)cc1	11.4
O=C(Nc1ccc(F)cc1)C1CCN(c2ncnc3c2nc2n3CCCCC2)CC1	4.72
COc1cc(C(=O)NCCC(=O)NC(C)CCc2ccccc2)cc(OC)c1OC (stereo not shown)	0.971
O=C(C/C=N\OCc1ccc([N+](=O)[O-])cc1)Nc1ccc(Br)cc1	16.6
Cc1ccc2cc(C(c3nnnn3C3CCCC3)N3CCN(c4ccccc4)CC3)c(=O)[nH]c2c1 (stereo not shown)	-10.5
CN(Cc1ccccc1)Cc1nc2c([nH]1)c(=O)[nH]c(=O)n2C	0.171
CC(C)C1=CC2=CCC3C(C)(C(=O)[O-])CCCC3(C)C2CC1.CC(C12CC3CC(CC(C3)C1)C2)[N+](C)(C)C (stereo not shown)	11.2
N#Cc1c(-c2ccccc2)nc(SCC(=O)Nc2nnc(C(F)(F)F)s2)[nH]c1=O	8.9
CCOc1cc2[nH]c(=S)n(CCN3CCC(C)CC3)c(=O)c2cc1OCC	-19.1
O=[N+]([O-])c1ccc(N2N=C(c3ccco3)CC2c2ccccc2)cc1 (stereo not shown)	0.585
COC(=O)Cc1[nH]nc2c1C(C1C=CCCC1)C(C#N)=C(N)O2 (stereo not shown)	-10.2

SMILES	hERG current change (%, negative = inhibition) at 1uM [%]
CCOC(=O)C(C)(C)Oc1ccc(Cl)cc1	8.05
Cc1nc(S/C(=C/c2ccc(-c3ccc(C(=O)O)cc3)o2)C(=O)O)n[nH]1	-2.87
O=C(Nc1cccc(S(=O)(=O)N2CCOCC2)c1)C(c1ccccc1)N1CCCCC1 (stereo not shown)	1.78
COc1ccc(CC(=O)Nc2cccc(C(=O)O)c2C)cc1	16.7
N#C/C(=C\c1ccc(Cl)c([N+](=O)[O-])c1)c1ccccn1	7.77
CC(=O)N1N=C(N)SC1c1cccc([N+](=O)[O-])c1 (stereo not shown)	8.19
CC(CCc1ccccc1)NC(=O)CNC(=O)c1cccs1 (stereo not shown)	-5.52
O=S(=O)(NCc1ccncc1)c1ccc(Br)s1	3.27
Cc1cc(NC(=O)Cc2ccccc2[N+](=O)[O-])no1	17.6
O=C(Nc1ccccc1C(=O)O)c1ccc(Cl)c(S(=O)(=O)N2CCOCC2)c1	12.6
Cn1c(C(C#N)C(=O)Cc2cccc3ccccc23)nc2ccccc21 (stereo not shown)	11.6
O=C(NCc1cccnc1)/C(=C/c1ccc(-c2cccc(Cl)c2)o1)S(=O)(=O)c1ccccc1	-4.77
COc1ccc(Cl)cc1NC(=O)Cn1c(NCCO)nc2ccccc21	15.5
COc1ccc(CNc2nc(-c3cccnc3)nn2C(=O)c2cccs2)cc1	2.12
COc1ccc([N+](=O)[O-])cc1NC(=O)c1ccc(N(Cc2ccccc2Cl)S(C)(=O)=O)cc1	-1.33
S=c1[nH]nc(-c2cc(-c3ccccc3)n[nH]2)n1/N=C/c1c(Cl)cccc1Cl	21.5
C=CCn1c(CNC(=O)c2ccco2)nnc1SCC(=O)c1ccc(OC)cc1	1.89
CCOc1ccc2nc(SCC(=O)N3c4ccccc4Sc4ccccc43)sc2c1	8.21
COc1ccc(CCC(=O)Nc2ccc(N3CCOCC3)cc2)cc1	4.17
O=C(NCc1ccc2c(c1)OCO2)C1CC(=O)N(CCc2ccccc2)C1 (stereo not shown)	16.9
NC(=O)COc1ccc2oc(=O)cc(-c3cc4ccccc4o3)c2c1	20.5
CC1CCc2sc(C(=O)NC(C)C3CCCO3)cc2C1 (stereo not shown)	-4.56
CC(C(=O)NC(=O)NC1CCCCC1)N1CCN(c2ccccn2)CC1 (stereo not shown)	0.685
C[C@H](N)c1nnc(SCC(N)=O)o1.Cl	3.37
CCC(C)NC(=O)N[C@@H](CCSC)C(=O)OC (stereo partly shown)	0.868
C=CCn1c(SCC(=O)c2ccc(OC)cc2)nnc1-c1cc2cccc(OC)c2o1	18
COc1ccc(NC(=O)CSc2nnc(-c3cccs3)n2Cc2ccco2)cc1OC	-17.2
